# Laboratory results as given in the supplement of paper PMC8285479.
# Counter-ions that a name gives are not always drawn. ± gives the standard deviation of the averaged measurements. Over roughly 1,900 compounds, “normalised cell viability (NPI; 0 = phenylarsine oxide control, 1 = DMSO control)” has its median near 1; the lowest 2% begin near 0.039. This is one part of the list.
# Test system: NCI-H1944
# Assay: normalised cell viability (NPI; 0 = phenylarsine oxide control, 1 = DMSO control) (fraction of DMSO control); NCI-H1944 is a non-small cell lung cancer line; higher = more viable cells (less compound toxicity)
# Conditions: 6 days
# [1] = glucocorticoid arm: hydrocortisone 2.75 uM co-treatment, compound 1 µM
# [2] = glucocorticoid arm: hydrocortisone 2.75 uM co-treatment, compound 5 µM
# [3] = glucocorticoid arm: hydrocortisone 2.75 uM pre-treated 2 days and continued, compound 1 µM
# [4] = glucocorticoid arm: hydrocortisone 2.75 uM pre-treated 2 days and continued, compound 5 µM
# [5] = glucocorticoid arm: vehicle, compound 1 µM
# [6] = glucocorticoid arm: vehicle, compound 5 µM
# 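Note: CTB read-out in 384-well plates, mean of triplicate wells, normalised per plate against 1 µM phenylarsine oxide and 0.1% DMSO, compounds added 24 h after seeding.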
SMILES,normalised cell viability [1],normalised cell viability [2],normalised cell viability [3],normalised cell viability [4],normalised cell viability [5],normalised cell viability [6]
c1ccc2c(c1)OCC(C1=NCCN1)O2 (stereo not drawn) [Idazoxan hydrochloride],1.002 ± 0.0068,1.02 ± 0.029,0.9917 ± 0.0057,1.03 ± 0.07,0.9787 ± 0.0023,0.985 ± 0.013
CCCN(CCC)[C@H]1CCc2c(F)ccc(O)c2C1 [S(-)-UH-301 hydrochloride],0.991 ± 0.0092,0.992 ± 0.025,0.805 ± 0.34,1 ± 0.028,1 ± 0.0084,0.9963 ± 0.0035
CCCN1CCC[C@@H]2Cc3n[nH]cc3C[C@H]21 (racemic) [(±)-Quinpirole dihydrochloride],1.013 ± 0.0058,1.01 ± 0.036,0.893 ± 0.19,1.03 ± 0.01,1.013 ± 0.0058,1.01 ± 0.011
CCCN1CCC[C@@H]2Cc3n[nH]cc3C[C@H]21 [(-)-Quinpirole hydrochloride],0.982 ± 0.006,0.992 ± 0.018,0.867 ± 0.22,1.01 ± 0.016,0.985 ± 0.0087,0.9927 ± 0.0045
Cc1nc(-c2ccc(-c3ccc(C(=O)N4CCc5cc6c(cc54)C4(CCN(C)CC4)CO6)cc3)c(C)c2)no1,0.994 ± 0.0066,0.356 ± 0.53,1.02 ± 0.02,1.1 ± 0.021,0.994 ± 0.014,0.00588 ± 0.0059
CC(C)c1cccc(C(C)C)c1O [Propofol],1.005 ± 0.0092,0.973 ± 0.022,0.994 ± 0.014,0.972 ± 0.031,1.001 ± 0.009,1.002 ± 0.0074
Oc1ccc2c3c1O[C@H]1[C@@H](O)CC[C@@]4(O)[C@@H](C2)N(CC2CCC2)CC[C@]314 [Nalbuphine hydrochloride],1.02 ± 0.01,1.02 ± 0.032,1.01 ± 0.021,1.03 ± 0.053,1.013 ± 0.0058,1.03 ± 0.017
O=C(O)CC[N+](=O)[O-] [3-Nitropropionic acid],0.9993 ± 0.0011,0.996 ± 0.026,1 ± 0.013,0.901 ± 0.15,1.01 ± 0.01,1.01 ± 0.011
OCc1cnc[nH]1 [4-Imidazolemethanol hydrochloride],1.017 ± 0.0058,1 ± 0.027,1.01 ± 0.019,0.995 ± 0.031,1.017 ± 0.0058,1.01 ± 0.01
CN1C[C@H](CNC(=O)OCc2ccccc2)C[C@@H]2c3cccc4c3c(cn4C)C[C@H]21 [Metergoline],0.986 ± 0.016,0.97 ± 0.015,0.993 ± 0.011,1.04 ± 0.1,0.9953 ± 0.0025,0.9993 ± 0.0093
N#CC(C#N)=Cc1cc(O)c(O)c(O)c1 [Tyrphostin 25],1.02 ± 0.01,1.02 ± 0.029,1.02 ± 0.015,1.02 ± 0.025,1.01 ± 0.016,1.023 ± 0.0058
C=CCN1CC[C@]23c4c5ccc(O)c4O[C@H]2C(=O)CC[C@@]3(O)[C@H]1C5 [Naloxone hydrochloride],0.998 ± 0.002,0.972 ± 0.019,0.999 ± 0.018,0.9913 ± 0.0071,0.988 ± 0.0046,0.998 ± 0.01
Cn1cc(C2=C(c3cn(C4CCN(Cc5ccccn5)CC4)c4ccccc34)C(=O)NC2=O)c2ccccc21,1.007 ± 0.0058,1.03 ± 0.023,1.02 ± 0.016,1.02 ± 0.011,1.013 ± 0.0058,1.02 ± 0.02
NC(=O)c1cc(N2CC2)c([N+](=O)[O-])cc1[N+](=O)[O-],1.01,0.954 ± 0.012,1.037 ± 0.0058,1 ± 0.065,0.977 ± 0.015,0.8203 ± 0.0076
C[C@@H]1O[C@H](C[N+](C)(C)C)C[C@H]1O (racemic) [(±)-Muscarine chloride],1.02 ± 0.011,1.03 ± 0.035,1.01 ± 0.015,1.05 ± 0.085,0.9963 ± 0.0047,1 ± 0.014
CP(=O)(O)C1=CCNCC1,1.02 ± 0.017,1.02 ± 0.01,1.03 ± 0.032,1.023 ± 0.0058,1.01,1.01 ± 0.011
NC(CCCCCP(=O)(O)O)C(=O)O (racemic) [(±)-2-Amino-7-phosphonoheptanoic acid],0.98 ± 0.012,0.9763 ± 0.0025,0.9903 ± 0.005,0.97 ± 0.013,0.9873 ± 0.004,0.972 ± 0.0072

SMILES,normalised cell viability [1],normalised cell viability [2],normalised cell viability [3],normalised cell viability [4],normalised cell viability [5],normalised cell viability [6]
CN1CC[C@]2(CCN3CCc4c(oc5ccccc45)[C@@H]3C2)N(C)C1=O,1.003 ± 0.0058,0.974 ± 0.015,1.01,0.889 ± 0.24,1.013 ± 0.0058,1.02 ± 0.015
Cc1cccc(Cc2c[nH]cn2)c1C [Detomidine HCl],1.03,1.05 ± 0.02,1.02 ± 0.02,1.03 ± 0.039,1.023 ± 0.0058,1.02 ± 0.011
N#CC(C#N)=Cc1ccc(O)c(O)c1 [Tyrphostin 23],1.01 ± 0.01,1.033 ± 0.0058,0.898 ± 0.2,0.987 ± 0.011,1.02 ± 0.01,1.027 ± 0.0058
N#CC(C#N)=Cc1ccc(O)c(O)c1,1.01 ± 0.015,1.03 ± 0.015,1.01 ± 0.01,1 ± 0.018,1.01,1.023 ± 0.0058
NC(=O)CI [Iodoacetamide],1.007 ± 0.0058,1.02 ± 0.011,1.017 ± 0.0058,0.991 ± 0.021,1.003 ± 0.0058,1.013 ± 0.0058
"COc1ccc2[nH]c3c(c2c1)CCNC3 [6-Methoxy-1,2,3,4-tetrahydro-9H-pyrido[3,4b] indole]",0.979 ± 0.019,0.968 ± 0.024,0.994 ± 0.0072,0.974 ± 0.051,0.986 ± 0.011,0.9777 ± 0.004
Cc1cccc(C)c1NC(=O)CN1CCCC1=O [Nefiracetam],0.985 ± 0.014,0.94 ± 0.0061,0.996 ± 0.017,0.966 ± 0.016,0.9843 ± 0.007,0.9927 ± 0.0075
CC(C)NC(C)Cc1ccc(I)cc1 (stereo not drawn) [Iofetamine hydrochloride],0.997 ± 0.012,0.938 ± 0.02,1.003 ± 0.0061,1.04 ± 0.085,0.975 ± 0.0056,0.9927 ± 0.0067
CN1CCCCC1Cn1cc(C(=O)c2cc([N+](=O)[O-])ccc2I)c2ccccc21 (stereo not drawn),1.02 ± 0.015,0.99 ± 0.026,1.04 ± 0.01,1.01 ± 0.029,1.013 ± 0.0058,1.001 ± 0.0081
COC(=O)N1CCN(C(=O)Cc2ccc(Cl)c(Cl)c2)C(CN2CCCC2)C1 (stereo not drawn),1.02 ± 0.01,1 ± 0.028,1.02 ± 0.021,1.04 ± 0.029,0.9913 ± 0.0081,0.9957 ± 0.0075
NCC#Cc1ccccc1 [3-Phenylpropargylamine hydrochloride],0.994 ± 0.0027,1 ± 0.016,1.02 ± 0.035,0.9913 ± 0.0081,0.9867 ± 0.0057,0.981 ± 0.0087
N=C(NCCC[C@H](N)C(=O)O)N[N+](=O)[O-] [NG-Nitro-L-arginine],1.003 ± 0.0058,1.01 ± 0.022,1.01 ± 0.017,0.86 ± 0.24,1 ± 0.012,1.001 ± 0.0085
O=c1c2ccccc2[se]n1-c1ccccc1 [Ebselen],1.003 ± 0.0064,1.03 ± 0.011,1.005 ± 0.0092,1.03 ± 0.011,1.001 ± 0.0081,1.003 ± 0.0064
CCCN(CCC)C1Cc2cc(OC)c(OC)cc2C1,0.9987 ± 0.0023,0.976 ± 0.013,1.01 ± 0.021,0.9727 ± 0.0097,1.01 ± 0.01,1 ± 0.011
CC(=O)O[C@H]1C[C@@H]2CC[C@@H]3[C@H](CC[C@@]4(C)[C@H]3C[C@H]([N+]3(C)CCCCC3)[C@@H]4OC(C)=O)[C@@]2(C)C[C@@H]1[N+]1(C)CCCCC1 [Pancuronium bromide],1 ± 0.015,1.02 ± 0.01,1.006 ± 0.0075,1.05 ± 0.069,1.01,1.013 ± 0.0058
CC(=O)O[C@H]1C[C@@H]2CC[C@@H]3[C@H](CC[C@@]4(C)[C@H]3C[C@H]([N+]3(C)CCCCC3)[C@@H]4OC(C)=O)[C@@]2(C)C[C@@H]1[N+]1(C)CCCCC1 [Pancuronium dibromide],0.997 ± 0.015,0.963 ± 0.03,1 ± 0.03,0.9813 ± 0.0075,1 ± 0.011,1.005 ± 0.0092
